Test results as given in article PMC4336329 (PLoS ONE, 2015).
Out of some 310,000 compounds screened, about 14,000 (4.5%) showed an effect of 50% or more. The effect is printed as a negative number. Some of the results follow.

target: human ether-à-go-go-related gene (hERG) potassium channel (human, UniProt Q12809); assay: primary screen, population patch clamp on CHO cells stably expressing hERG
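Also: peak tail current of the secondary pulse compared with the same well before compound.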

Sequence of human ether-à-go-go-related gene (hERG) potassium channel (Q12809 whole entry, looked up): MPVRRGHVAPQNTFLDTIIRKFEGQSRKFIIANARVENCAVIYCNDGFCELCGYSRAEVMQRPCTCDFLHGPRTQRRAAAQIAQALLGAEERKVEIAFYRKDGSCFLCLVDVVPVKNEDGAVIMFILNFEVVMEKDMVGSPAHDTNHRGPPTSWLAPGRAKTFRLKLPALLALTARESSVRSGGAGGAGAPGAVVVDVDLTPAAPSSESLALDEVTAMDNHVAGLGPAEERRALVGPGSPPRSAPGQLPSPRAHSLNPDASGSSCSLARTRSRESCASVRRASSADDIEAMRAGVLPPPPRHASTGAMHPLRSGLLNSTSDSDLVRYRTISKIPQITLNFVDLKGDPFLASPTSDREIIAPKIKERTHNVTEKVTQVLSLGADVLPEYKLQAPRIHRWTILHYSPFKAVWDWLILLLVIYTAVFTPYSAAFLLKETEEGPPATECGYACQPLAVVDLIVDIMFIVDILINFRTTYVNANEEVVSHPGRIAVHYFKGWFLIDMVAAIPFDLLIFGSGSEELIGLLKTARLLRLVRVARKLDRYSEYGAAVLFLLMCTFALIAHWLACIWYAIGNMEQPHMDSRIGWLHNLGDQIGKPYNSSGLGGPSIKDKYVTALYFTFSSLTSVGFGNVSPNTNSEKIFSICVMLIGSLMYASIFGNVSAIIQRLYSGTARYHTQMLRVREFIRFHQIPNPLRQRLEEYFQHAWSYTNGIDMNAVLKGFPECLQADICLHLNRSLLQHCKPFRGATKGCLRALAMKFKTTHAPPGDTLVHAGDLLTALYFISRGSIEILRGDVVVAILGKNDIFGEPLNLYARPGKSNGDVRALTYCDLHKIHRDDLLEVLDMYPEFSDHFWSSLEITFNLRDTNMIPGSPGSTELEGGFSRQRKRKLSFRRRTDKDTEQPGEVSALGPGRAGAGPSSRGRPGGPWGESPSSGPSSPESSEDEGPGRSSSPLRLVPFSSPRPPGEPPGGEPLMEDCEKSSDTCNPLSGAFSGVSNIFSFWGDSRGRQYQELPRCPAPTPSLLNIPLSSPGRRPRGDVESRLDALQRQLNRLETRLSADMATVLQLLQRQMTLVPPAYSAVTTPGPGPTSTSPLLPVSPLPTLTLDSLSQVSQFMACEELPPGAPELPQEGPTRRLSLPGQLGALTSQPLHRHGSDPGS

For `COc1ccc2cc(C(=O)N3CCN(c4ccccc4OC)CC3)[nH]c2c1`, which “hERG current change (%, negative = inhibition) at 10uM” value is on record?
Its value is 6.01%.

For `Cc1nc2ccccn2c1C(=O)N=Nc1c(O)n(CCC(C)C)c2ccccc12`, which “hERG current change (%, negative = inhibition) at 10uM” value is on record?
Its value is -5.4%.

How did the “hERG current change (%, negative = inhibition) at 10uM” value turn out when `Cc1ccc(CNC(=O)CN2C(=O)COc3ccc(C)cc32)cc1` was run?
Its value is -5.06%.

How did the “hERG current change (%, negative = inhibition) at 10uM” value turn out when `COc1ccc(CNC(=O)COC(=O)Cc2ccsc2)cc1` was run?
Its value is 9.59%.

With `Cc1ccc(C(C2=C(O)CC(C)(C)CC2=O)C2C(=O)CC(C)(C)CC2=O)o1` (centres unmarked) as the molecule, how does the “hERG current change (%, negative = inhibition) at 10uM” value read?
The value was 14.6%.

With `COCCn1c(-c2ccc(Cl)cc2)cnc1SCC(=O)NCCc1ccc(OC)c(OC)c1` as the molecule, how does the “hERG current change (%, negative = inhibition) at 10uM” value read?
Its value is -48.4%.

How did the “hERG current change (%, negative = inhibition) at 10uM” value turn out when `Cc1[nH]c2ccc(C(=O)N3CCN(c4ccccc4Cl)CC3)cc2c1C` was run?
The value was 6.54%.

For `Cc1ccc(C(=O)O/N=C(\N)c2ccccn2)c(C)c1`, which “hERG current change (%, negative = inhibition) at 10uM” value is on record?
The value was -3.86%.

How did the “hERG current change (%, negative = inhibition) at 10uM” value turn out when `COCCCNc1oc(-c2ccccc2Cl)nc1C#N` was run?
The value was -3.84%.

Which “hERG current change (%, negative = inhibition) at 10uM” value does the source give for `O=C(Cn1cc(C(=O)c2ccco2)c2ccccc21)NCc1ccco1` here?
Its value is -23.8%.

`O=C(O)COc1ccc(-c2nccc(-c3ccccn3)n2)cc1` was tested. Which “hERG current change (%, negative = inhibition) at 10uM” value did it give?
Its value is -1.02%.

`COC(=O)c1ccccc1NC(=O)c1cc(C2CC2)on1` was tested. Which “hERG current change (%, negative = inhibition) at 10uM” value did it give?
The value was 2.52%.

How did the “hERG current change (%, negative = inhibition) at 10uM” value turn out when `Cc1cc(C)nc(SCc2cc(=O)c(OC(=O)c3ccc(Cl)c([N+](=O)[O-])c3)co2)n1` was run?
The value was 3.68%.

For `Cc1cc(N(C)C)c(C#N)c(N2CCOCC2)n1`, which “hERG current change (%, negative = inhibition) at 10uM” value is on record?
Its value is 17%.

For `COc1ccc(-c2cc(C(=O)Nc3c(C)n(C)n(-c4ccccc4)c3=O)no2)cc1OC`, which “hERG current change (%, negative = inhibition) at 10uM” value is on record?
The value was 26.1%.

`Cc1cccc(NC(=O)c2ccc(Cl)c(S(=O)(=O)N3CCc4ccccc43)c2)n1` was tested. Which “hERG current change (%, negative = inhibition) at 10uM” value did it give?
The value was 3.93%.

How did the “hERG current change (%, negative = inhibition) at 10uM” value turn out when `COc1ccc(CCN(C)C(=O)CSc2nnnn2C)cc1OC` was run?
The value was 26.3%.

Which “hERG current change (%, negative = inhibition) at 10uM” value does the source give for `O=S(=O)(c1ccc(Cl)s1)N1CCC(Cc2ccccc2)CC1` here?
The value was -5.12%.

Which “hERG current change (%, negative = inhibition) at 10uM” value does the source give for `CC(=O)N1c2ccc(S(=O)(=O)N3CCCC3C(=O)NCc3ccccc3Cl)cc2CC1C` (centres unmarked) here?
The value was -40%.

`CCc1cccc(CC)c1NC(=O)c1cc(CN2C(=O)c3ccccc3C2=O)ccc1OC` was tested. Which “hERG current change (%, negative = inhibition) at 10uM” value did it give?
The value was -28.5%.

For `O=C(Nc1ccccn1)NC(C(F)(F)F)C(F)(F)F`, which “hERG current change (%, negative = inhibition) at 10uM” value is on record?
Its value is 12.1%.

`O=C(NCCCN1CCCC1=O)c1ccc(Cl)c(Cl)c1` was tested. Which “hERG current change (%, negative = inhibition) at 10uM” value did it give?
The value was 5.91%.

With `COc1ccccc1C/C(N)=N/OC(=O)c1ccc(C)c([N+](=O)[O-])c1` as the molecule, how does the “hERG current change (%, negative = inhibition) at 10uM” value read?
Its value is -6.78%.

Which “hERG current change (%, negative = inhibition) at 10uM” value does the source give for `Cc1c(C)[n+](=O)c2c(n1[O-])CCCCC2` here?
Its value is 6.1%.

Which “hERG current change (%, negative = inhibition) at 10uM” value does the source give for `c1ccc2c(c1)nc(Nc1ccc(N3CCCCC3)cc1)c1nncn12` here?
The value was -13.8%.

`O=C(O)CC1NC(=S)N(c2ccccc2)C1=O` (centres unmarked) was tested. Which “hERG current change (%, negative = inhibition) at 10uM” value did it give?
The value was 3.9%.

Which “hERG current change (%, negative = inhibition) at 10uM” value does the source give for `CCOc1ccc(Cl)cc1S(=O)(=O)N1CCC(C(=O)NCc2cccnc2)CC1` here?
The value was -19.1%.

How did the “hERG current change (%, negative = inhibition) at 10uM” value turn out when `Cc1ccccc1CS(=O)(=O)CCC(=O)NCCCN1CCN(c2ccccc2F)CC1` was run?
The value was -59.3%.

Which “hERG current change (%, negative = inhibition) at 10uM” value does the source give for `O=C(NCCCN1CCOCC1)C(=O)NCC1OCCN1S(=O)(=O)c1cc(F)ccc1F` (centres unmarked) here?
Its value is 1.21%.

Which “hERG current change (%, negative = inhibition) at 10uM” value does the source give for `CCOc1cccc(Oc2ccc(C(F)(F)F)cn2)c1` here?
Its value is -45.1%.

With `CCN1c2nc3ccccn3c(=O)c2CC2(C(=O)N(C)C(=O)N(C)C2=O)C1C` (centres unmarked) as the molecule, how does the “hERG current change (%, negative = inhibition) at 10uM” value read?
The value was 2.38%.

How did the “hERG current change (%, negative = inhibition) at 10uM” value turn out when `CC(C)c1ccc(OCC(=O)N2CCCN(C)CC2)cc1` was run?
The value was -14.9%.

With `CCC(=O)N1c2ccc(S(=O)(=O)NCCc3ccc(C)cc3)cc2CC1C` (centres unmarked) as the molecule, how does the “hERG current change (%, negative = inhibition) at 10uM” value read?
The value was -1.96%.

`Nc1ccc(-c2ncc(-c3ccccc3)o2)cc1` was tested. Which “hERG current change (%, negative = inhibition) at 10uM” value did it give?
Its value is 12.6%.

For `COc1ccc(N2CC(C(=O)N[C@@H](C)C(=O)NC3CCCC3)CC2=O)cc1` (some centres unmarked), which “hERG current change (%, negative = inhibition) at 10uM” value is on record?
Its value is 15.7%.

How did the “hERG current change (%, negative = inhibition) at 10uM” value turn out when `CN(C(=O)CSc1nc(O)cc(=O)n1-c1ccccc1F)c1ccccc1` was run?
The value was 12.1%.

Which “hERG current change (%, negative = inhibition) at 10uM” value does the source give for `Fc1ccc(Sc2cc(Cl)c(-c3ccccc3)nn2)cc1` here?
The value was -34.1%.

`NC(=O)C1CCN(CC(=O)N2c3ccccc3CCc3ccccc32)CC1` was tested. Which “hERG current change (%, negative = inhibition) at 10uM” value did it give?
Its value is 19.3%.

`CCCCCCCC(=O)Nc1cc(C(=O)NCc2ccc(C)cc2)ccc1N1CCC2(CC1)CC(c1cccc(Br)c1)=NO2` was tested. Which “hERG current change (%, negative = inhibition) at 10uM” value did it give?
Its value is 2.8%.

For `COc1ccc(OC)c2c1sc(=NC(=O)C(C)(C)C)n2C`, which “hERG current change (%, negative = inhibition) at 10uM” value is on record?
The value was 7.72%.

With `Cl.Clc1ccccc1C(c1nnnn1Cc1ccco1)N1CCN(Cc2ccco2)CC1` (centres unmarked) as the molecule, how does the “hERG current change (%, negative = inhibition) at 10uM” value read?
Its value is -27.6%.

How did the “hERG current change (%, negative = inhibition) at 10uM” value turn out when `Cc1ccc(-c2csc(N(CC3CCCO3)C(=O)c3ccco3)n2)cc1` (centres unmarked) was run?
The value was -5.32%.

`CCCCCCOC(=O)c1ccccc1N` was tested. Which “hERG current change (%, negative = inhibition) at 10uM” value did it give?
The value was 1.33%.

`Br.COC(=O)COc1ccc(C(=O)Cn2c(NCCCO)nc3ccccc32)cc1` was tested. Which “hERG current change (%, negative = inhibition) at 10uM” value did it give?
Its value is -2.45%.

With `Cc1ccc2nsnc2c1N(S(C)(=O)=O)S(C)(=O)=O` as the molecule, how does the “hERG current change (%, negative = inhibition) at 10uM” value read?
The value was -1.27%.

How did the “hERG current change (%, negative = inhibition) at 10uM” value turn out when `Cc1cc(Br)ccc1OCC(=O)NNC(=O)C(=O)Nc1ccccc1` was run?
Its value is -0.47%.

For `CCOC(=O)n1c(SCC(N)=O)nc2ccccc21`, which “hERG current change (%, negative = inhibition) at 10uM” value is on record?
The value was -0.109%.

How did the “hERG current change (%, negative = inhibition) at 10uM” value turn out when `COc1ccc(NC(=O)NNC(=O)COc2ccc3cc(Br)ccc3c2)cc1OC` was run?
The value was 5.68%.

Which “hERG current change (%, negative = inhibition) at 10uM” value does the source give for `CC(=O)Nc1ccc(NC(=O)CCCN2C(=O)c3ccccc3C2=O)cc1` here?
Its value is 15.9%.

How did the “hERG current change (%, negative = inhibition) at 10uM” value turn out when `Cc1ccccc1OCC(=O)OCC(=O)NCCNC(=O)COC(=O)COc1ccccc1C` was run?
Its value is -0.564%.

With `Cc1ccc(C(=O)CNc2ccccc2C)cc1` as the molecule, how does the “hERG current change (%, negative = inhibition) at 10uM” value read?
Its value is 7.29%.

Which “hERG current change (%, negative = inhibition) at 10uM” value does the source give for `Cc1ccc(-c2cc(C(=O)Nc3cc(C)on3)no2)cc1` here?
Its value is 20.4%.

`CC(C)C[C@H](NC(=O)C1(c2ccccc2)CCN(C(=O)OC(C)(C)C)CC1)C(=O)N1CCC[C@H]1C(=O)O` was tested. Which “hERG current change (%, negative = inhibition) at 10uM” value did it give?
The value was 9.37%.

`CCCCn1c(C)nc2cc(S(=O)(=O)N3CCOCC3)ccc21` was tested. Which “hERG current change (%, negative = inhibition) at 10uM” value did it give?
The value was -11.7%.

With `CCCNC(=O)c1ccccc1NC(=O)c1ccc2c(=O)n3c(nc2c1)CCC3` as the molecule, how does the “hERG current change (%, negative = inhibition) at 10uM” value read?
The value was -14.9%.

`Cc1ccc(S(=O)(=O)N2CCN(C(=O)CC(C)n3cncn3)CC2)cc1C` (centres unmarked) was tested. Which “hERG current change (%, negative = inhibition) at 10uM” value did it give?
The value was 9.56%.
